This is one part of the list. Cleavage of a single-stranded DNA pool by Rep nickase domains was read by sequencing (3 µM enzyme, 1 h, 37 °C); shown is the middle of each 90-letter strand. Numbers give uncut DNA relative to the enzyme-free pool, as log2; strong cutting gives strongly negative numbers. There is no active / inactive call. Counts are relative to all reads, so uncut sequences can rise above 0 when many others are cut.
How the values were obtained:
Assay in all cases: uncleaved DNA left, log2 of reads against the no-enzyme library (log2 ratio); higher = less cleavage (more negative = more Rep cleavage of the k-mer); sequences stand for … in CTCGTCCG…ACCGGAGA
[1] = test system: T1, Rep nickase domain of Muscovy duck circovirus
T1 sequence (Rep 1-111, printed without the tag): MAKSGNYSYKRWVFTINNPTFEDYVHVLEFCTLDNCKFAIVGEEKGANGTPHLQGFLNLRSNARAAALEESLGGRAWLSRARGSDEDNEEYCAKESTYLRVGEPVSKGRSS
Experimental: (§1)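 A pool of 90-nt single-stranded DNAs with seven random bases just before the constant AC of the nick site (name = the seven bases) was cut by 3 µM recombinant His6-SUMO-tagged Rep nickase domain (300 nM DNA, 50 mM HEPES pH 8.0, 50 mM NaCl, 1 mM MnCl2, 1 h, 37 °C, three replicates). Uncut DNA was amplified and sequenced.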

[2] = test system: T2, Rep nickase domain of banana bunchy top virus
T2 sequence (Rep 1-94, printed without the tag): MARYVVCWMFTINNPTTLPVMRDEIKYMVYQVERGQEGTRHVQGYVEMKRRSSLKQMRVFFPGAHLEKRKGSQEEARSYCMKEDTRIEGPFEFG
Experimental: as §1

[3] = test system: T3, Rep nickase domain of cabbage leaf curl virus
T3 sequence (Rep 1-116, printed without the tag): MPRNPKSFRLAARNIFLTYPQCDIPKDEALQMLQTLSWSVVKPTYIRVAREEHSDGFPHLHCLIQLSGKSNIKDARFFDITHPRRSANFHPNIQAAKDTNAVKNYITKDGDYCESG
Experimental: as §1

[4] = test system: T4, Rep nickase domain of chickpea chlorotic dwarf virus
T4 sequence (Rep 1-124, printed without the tag): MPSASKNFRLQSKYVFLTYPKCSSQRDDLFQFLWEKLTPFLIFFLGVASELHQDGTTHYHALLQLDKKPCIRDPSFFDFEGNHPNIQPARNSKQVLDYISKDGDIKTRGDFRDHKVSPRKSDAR
Experimental: as §1

[5] = test system: T5, Rep nickase domain of faba bean necrotic yellows virus
T5 sequence (Rep 1-98, printed without the tag): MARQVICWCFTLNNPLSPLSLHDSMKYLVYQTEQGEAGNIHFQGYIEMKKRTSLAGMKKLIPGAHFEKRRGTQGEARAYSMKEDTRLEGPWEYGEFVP
Experimental: as §1

[6] = test system: T6, Rep nickase domain of maize striate mosaic virus
T6 sequence (Rep 1-117, printed without the tag): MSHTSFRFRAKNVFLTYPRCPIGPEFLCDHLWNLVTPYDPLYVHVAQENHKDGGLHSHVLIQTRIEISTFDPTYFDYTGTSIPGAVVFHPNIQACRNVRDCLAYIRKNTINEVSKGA
Experimental: as §1

[7] = test system: T7, Rep nickase domain of porcine circovirus 2
T7 sequence (Rep 2-116, printed without the tag): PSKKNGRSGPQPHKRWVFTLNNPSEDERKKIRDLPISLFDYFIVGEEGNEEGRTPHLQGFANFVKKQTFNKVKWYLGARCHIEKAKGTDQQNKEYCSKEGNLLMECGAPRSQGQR
Experimental: as §1

[8] = test system: T8, Rep nickase domain of tomato golden mosaic virus
T8 sequence (Rep 1-124, printed without the tag): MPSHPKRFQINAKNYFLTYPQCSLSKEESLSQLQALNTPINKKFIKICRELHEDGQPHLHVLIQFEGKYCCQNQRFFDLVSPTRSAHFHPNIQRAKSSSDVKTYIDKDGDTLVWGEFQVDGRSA
Experimental: as §1

[9] = test system: T9, Rep nickase domain of tomato yellow leaf curl virus
T9 sequence (Rep 1-136, printed without the tag): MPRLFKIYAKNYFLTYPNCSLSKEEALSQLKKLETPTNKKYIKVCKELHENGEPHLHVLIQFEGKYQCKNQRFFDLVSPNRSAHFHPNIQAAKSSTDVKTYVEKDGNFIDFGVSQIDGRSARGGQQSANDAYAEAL
Experimental: as §1

[10] = test system: T10, Rep nickase domain of wheat dwarf virus
T10 sequence (Rep 1-137, printed without the tag): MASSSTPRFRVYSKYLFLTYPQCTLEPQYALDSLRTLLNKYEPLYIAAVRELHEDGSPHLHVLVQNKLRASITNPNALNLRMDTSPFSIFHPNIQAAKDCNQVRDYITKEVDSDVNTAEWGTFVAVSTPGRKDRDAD
Experimental: as §1

| Sequence | uncleaved DNA left (log2) [1] | uncleaved DNA left (log2) [2] | uncleaved DNA left (log2) [3] | uncleaved DNA left (log2) [4] | uncleaved DNA left (log2) [5] | uncleaved DNA left (log2) [6] | uncleaved DNA left (log2) [7] | uncleaved DNA left (log2) [8] | uncleaved DNA left (log2) [9] | uncleaved DNA left (log2) [10] |
| --- | --- | --- | --- | --- | --- | --- | --- | --- | --- | --- |
| TTGGTAG | 0.0296 | -0.0244 | -0.654 | -0.519 | -0.0188 | -1.15 | 0.0524 | 0.00169 | -0.0439 | -0.096 |
| ATGTCAC | 0.0422 | 0.0155 | -0.0206 | -0.235 | -0.0584 | -0.687 | -0.0238 | -0.102 | 0.0124 | 0.04 |
| AATGAGT | 0.0346 | -0.0208 | -0.267 | -0.541 | 0.0503 | -0.668 | -0.148 | -0.113 | -0.0332 | -0.0784 |
| ATCGGAT | 0.0535 | 0.113 | 0.148 | 1.67 | 0.000302 | 1.94 | 0.231 | 0.107 | -0.103 | 0.0457 |
| GCTCTGT | 0.107 | -0.0372 | 0.172 | 0.312 | 0.14 | 0.124 | -0.0135 | -0.0194 | -0.0432 | -0.0195 |
| AATAGGG | -0.055 | -0.0514 | -0.448 | -0.289 | 0.0275 | -0.958 | 0.035 | -0.00461 | 0.0179 | -0.00406 |
| ACCCCCC | 0.0369 | -0.0402 | -0.00767 | 0.000911 | -0.00401 | -0.184 | -0.0783 | 0.124 | -0.194 | 0.0618 |
| GAAAAGC | 0.0759 | 0.0181 | 0.0253 | 0.333 | 0.00131 | -0.452 | 0.142 | 0.0398 | -0.0181 | 0.063 |
| CCTTAAT | -2.19 | -0.285 | -0.11 | -1.36 | -0.0262 | -0.781 | -3.68 | -0.133 | -0.0832 | -0.129 |
| CTTACGG | 0.191 | 0.229 | 0.7 | 1.44 | 0.104 | 1.94 | 0.321 | 0.243 | 0.0972 | 0.181 |
| TATGATA | 0.000288 | 0.00615 | -0.0267 | -2.24 | 0.207 | -0.154 | -0.0267 | 0.0613 | 0.032 | 0.0399 |
| CTTTGCC | -0.127 | -0.133 | -0.974 | -0.921 | -0.109 | -1.29 | -0.771 | -0.168 | 0.0858 | -0.166 |
| ATGTCCC | -0.108 | 0.00327 | 0.326 | 1.04 | -0.103 | 0.968 | -0.234 | 0.0273 | -0.133 | -0.026 |
| ACCTGTC | -0.0527 | -0.158 | -0.342 | -0.28 | -0.0664 | -0.828 | -0.0105 | -0.0927 | -0.185 | -0.214 |
| CAGCTTC | 0.0822 | -0.0835 | -0.103 | -0.753 | -0.0338 | -0.613 | -0.306 | -0.043 | -0.0177 | -0.0323 |

— the supplement of paper PMC7826260
